The record followed here is article PMC9911399, “Two distinct binding modes provide the RNA-binding protein RbFox with extraordinary sequence specificity”.

Substitutions are numbered along the chain they refer to; changes in the protein carry UniProt numbers. The list shows a part of the results.

The chains are these.
T1: RBFOX1 RRM (Homo sapiens, UniProt Q9NWB1 109-208)
T1 sequence: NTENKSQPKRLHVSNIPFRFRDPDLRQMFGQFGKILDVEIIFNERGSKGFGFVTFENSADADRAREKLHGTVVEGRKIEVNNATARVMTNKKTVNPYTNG

B1: AGGAUGG (DNA:RNA)
RNA: GGGAGACCGGAAUUCAGAUUGUCCAGGAUGGUUAAAUCCCGUCGUAGCCACCA
DNA 1: CAATCTGAATTCCGGTCTCCC
DNA 2: TGGTGGCTACGACGGGATT
B2: AACAUGA (DNA:RNA)
RNA: B1 RNA with G26A, G27C, G31A
DNA 1: CAATCTGAATTCCGGTCTCCC
DNA 2: TGGTGGCTACGACGGGATT
B3: GUCGGCG (DNA:RNA)
RNA: B1 RNA with A25G, G26U, G27C, A28G, U29G, G30C
DNA 1: CAATCTGAATTCCGGTCTCCC
DNA 2: TGGTGGCTACGACGGGATT
B4: GAGUCUG (DNA:RNA)
RNA: B1 RNA with A25G, G26A, A28U, U29C, G30U
DNA 1: CAATCTGAATTCCGGTCTCCC
DNA 2: TGGTGGCTACGACGGGATT
B5: UGCACUG (DNA:RNA)
RNA: B1 RNA with A25U, G27C, U29C, G30U
DNA 1: CAATCTGAATTCCGGTCTCCC
DNA 2: TGGTGGCTACGACGGGATT
B6: UUUUACU (DNA:RNA)
RNA: GGGAGACCGGAAUUCAGAUUGUCCUUUUACUUUAAAUCCCGUCGUAGCCACCA
DNA 1: CAATCTGAATTCCGGTCTCCC
DNA 2: TGGTGGCTACGACGGGATT
B7: UUAUUGA (DNA:RNA)
RNA: B6 RNA with U27A, A29U, C30G, U31A
DNA 1: CAATCTGAATTCCGGTCTCCC
DNA 2: TGGTGGCTACGACGGGATT
B8: CGGGGGU (DNA:RNA)
RNA: B1 RNA with A25C, A28G, U29G, G31U
DNA 1: CAATCTGAATTCCGGTCTCCC
DNA 2: TGGTGGCTACGACGGGATT
B9: CAACUCG (DNA:RNA)
RNA: B1 RNA with A25C, G26A, G27A, A28C, G30C
DNA 1: CAATCTGAATTCCGGTCTCCC
DNA 2: TGGTGGCTACGACGGGATT
B10: GCCCAAU (DNA:RNA)
RNA: B6 RNA with U25G, U26C, U27C, U28C, C30A
DNA 1: CAATCTGAATTCCGGTCTCCC
DNA 2: TGGTGGCTACGACGGGATT
B11: UCCAACC (DNA:RNA)
RNA: B6 RNA with U26C, U27C, U28A, U31C
DNA 1: CAATCTGAATTCCGGTCTCCC
DNA 2: TGGTGGCTACGACGGGATT
B12: CCGCCAC (DNA:RNA)
RNA: B1 RNA with A25C, G26C, A28C, U29C, G30A, G31C
DNA 1: CAATCTGAATTCCGGTCTCCC
DNA 2: TGGTGGCTACGACGGGATT
B13: GCCCUUA (DNA:RNA)
RNA: B1 RNA with A25G, G26C, G27C, A28C, G30U, G31A
DNA 1: CAATCTGAATTCCGGTCTCCC
DNA 2: TGGTGGCTACGACGGGATT
B14: CUAGGGC (DNA:RNA)
RNA: B1 RNA with A25C, G26U, G27A, A28G, U29G, G31C
DNA 1: CAATCTGAATTCCGGTCTCCC
DNA 2: TGGTGGCTACGACGGGATT
B15: UGGGUAU (DNA:RNA)
RNA: B1 RNA with A25U, A28G, G30A, G31U
DNA 1: CAATCTGAATTCCGGTCTCCC
DNA 2: TGGTGGCTACGACGGGATT
B16: UAUGGUG (DNA:RNA)
RNA: B6 RNA with U26A, U28G, A29G, C30U, U31G
DNA 1: CAATCTGAATTCCGGTCTCCC
DNA 2: TGGTGGCTACGACGGGATT
B17: CUUUGCC (DNA:RNA)
RNA: B6 RNA with U25C, A29G, U31C
DNA 1: CAATCTGAATTCCGGTCTCCC
DNA 2: TGGTGGCTACGACGGGATT
B18: UAGAGGG (DNA:RNA)
RNA: B1 RNA with A25U, G26A, U29G
DNA 1: CAATCTGAATTCCGGTCTCCC
DNA 2: TGGTGGCTACGACGGGATT
B19: CACUUGC (DNA:RNA)
RNA: B1 RNA with A25C, G26A, G27C, A28U, G31C
DNA 1: CAATCTGAATTCCGGTCTCCC
DNA 2: TGGTGGCTACGACGGGATT
B20: GCGUCGG (DNA:RNA)
RNA: B1 RNA with A25G, G26C, A28U, U29C
DNA 1: CAATCTGAATTCCGGTCTCCC
DNA 2: TGGTGGCTACGACGGGATT
B21: CAGUUCU (DNA:RNA)
RNA: B6 RNA with U25C, U26A, U27G, A29U
DNA 1: CAATCTGAATTCCGGTCTCCC
DNA 2: TGGTGGCTACGACGGGATT
B22: CUCCAGA (DNA:RNA)
RNA: B6 RNA with U25C, U27C, U28C, C30G, U31A
DNA 1: CAATCTGAATTCCGGTCTCCC
DNA 2: TGGTGGCTACGACGGGATT
B23: GCCCAGU (DNA:RNA)
RNA: B6 RNA with U25G, U26C, U27C, U28C, C30G
DNA 1: CAATCTGAATTCCGGTCTCCC
DNA 2: TGGTGGCTACGACGGGATT
B24: CUUUAAA (DNA:RNA)
RNA: B6 RNA with U25C, C30A, U31A
DNA 1: CAATCTGAATTCCGGTCTCCC
DNA 2: TGGTGGCTACGACGGGATT
B25: GCCGAUG (DNA:RNA)
RNA: B1 RNA with A25G, G26C, G27C, A28G, U29A, G30U
DNA 1: CAATCTGAATTCCGGTCTCCC
DNA 2: TGGTGGCTACGACGGGATT
B26: GCACCAG (DNA:RNA)
RNA: B1 RNA with A25G, G26C, G27A, A28C, U29C, G30A
DNA 1: CAATCTGAATTCCGGTCTCCC
DNA 2: TGGTGGCTACGACGGGATT
B27: UAAGCAU (DNA:RNA)
RNA: B6 RNA with U26A, U27A, U28G, A29C, C30A
DNA 1: CAATCTGAATTCCGGTCTCCC
DNA 2: TGGTGGCTACGACGGGATT
B28: CGAUGAU (DNA:RNA)
RNA: B6 RNA with U25C, U26G, U27A, A29G, C30A
DNA 1: CAATCTGAATTCCGGTCTCCC
DNA 2: TGGTGGCTACGACGGGATT
B29: GGUAGUA (DNA:RNA)
RNA: B1 RNA with A25G, G27U, U29G, G30U, G31A
DNA 1: CAATCTGAATTCCGGTCTCCC
DNA 2: TGGTGGCTACGACGGGATT
B30: CCCAGAA (DNA:RNA)
RNA: B1 RNA with A25C, G26C, G27C, U29G, G30A, G31A
DNA 1: CAATCTGAATTCCGGTCTCCC
DNA 2: TGGTGGCTACGACGGGATT
B31: ACCGUUU (DNA:RNA)
RNA: B1 RNA with G26C, G27C, A28G, G30U, G31U
DNA 1: CAATCTGAATTCCGGTCTCCC
DNA 2: TGGTGGCTACGACGGGATT

The experiment concerns the target T1, RBFOX1 RRM. In words: EMSA; HiTS-Eq, 1 nM pool, 10 min; buffer printed only for the single-RNA assays: 10 mM Tris pH 7.5, 150 mM NaCl, 3.4 mM EDTA, 0.001% NP-40, 30 C. The conditions noted are these: tags: His6 N-terminal (pET28a); label: 5' 32P. The procedure, abridged:
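Purified RbFox RRM, wild type or mutant, was incubated for 10 min in 50 µL with 1 nM of a 5′-radiolabelled RNA pool carrying 7 randomized nucleotides, whose flanks were annealed to DNA oligonucleotides, over a series of increasing protein concentrations. Unbound RNA was resolved on 8% native PAGE, cut out, reverse-transcribed, barcoded by PCR and sequenced on an Illumina HiSeq 2500. Relative association constants were derived from changes in read counts for each RNA species versus the control reaction and normalised to the cognate motif.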
As to B1, the binding signal is 0.0178 KA relative to UGCAUGU.
B2: the binding signal is 0.00456 KA relative to UGCAUGU.
Turning to B3, the binding signal is 0.0204 KA relative to UGCAUGU.
On to B4, for which the binding signal is 0.0238 KA relative to UGCAUGU.
For B5 the value was 0.0224 KA relative to UGCAUGU; for B6, 0.00793 KA relative to UGCAUGU; for B7, 0.0139 KA relative to UGCAUGU.
Take B8: the binding signal was 0.0227 KA relative to UGCAUGU.
As for B9, the binding signal is 0.00248 KA relative to UGCAUGU.
Turning to B10, the binding signal was 0.00773 KA relative to UGCAUGU.
As to B11, the binding signal was 0.00367 KA relative to UGCAUGU.
Consider B12, for which the binding signal was 0.00254 KA relative to UGCAUGU.
Under B13 stands 0.00831 KA relative to UGCAUGU; under B14, 0.00212 KA relative to UGCAUGU.
With B15, the binding signal is 0.0278 KA relative to UGCAUGU.
On to B16, for which the binding signal was 0.0249 KA relative to UGCAUGU.
As for B17, the binding signal was 0.0129 KA relative to UGCAUGU.
As for B18, the binding signal is 0.00669 KA relative to UGCAUGU.
In the case of B19, the binding signal is 0.00965 KA relative to UGCAUGU.
As for B20, the binding signal is 0.0208 KA relative to UGCAUGU.
As for B21, the binding signal was 0.00766 KA relative to UGCAUGU.
B22: the binding signal is 0.00673 KA relative to UGCAUGU.
For B23 the value was 0.0115 KA relative to UGCAUGU; for B24, 0.00297 KA relative to UGCAUGU.
B25: the binding signal is 0.0184 KA relative to UGCAUGU.
B26: the binding signal was 0.00792 KA relative to UGCAUGU.
For B27 the value was 0.0125 KA relative to UGCAUGU.
Consider B28, for which the binding signal is 0.0156 KA relative to UGCAUGU.
Under B29 stands 0.00878 KA relative to UGCAUGU; under B30, 0.000615 KA relative to UGCAUGU.
On to B31, for which the binding signal is 0.00458 KA relative to UGCAUGU.
